Measured values published in PubChem BioAssay (NCATS).
The other results are listed elsewhere or left out. The main result of the screen is listed elsewhere. These columns were measured beside it and carry no call. Compounds called inactive in the main read-out are mostly missing here. The note in brackets gives the kind of curve behind each potency; many fits are weak.

Experiment: qHTS Assay for Lipid Storage Modulators (AID 1519)
Conditions: Drosophila S3 cells, BODIPY lipid droplet/cell ratio, laser cytometry, cells loaded with oleic acid
How it was run: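 Cells seeded at 5,000 per well were treated with compounds over a concentration series and loaded with oleic acid (400 uM, as added). Lipid droplet fluorescence (488 nm excitation, 500-530 nm channel) was read by laser-scanning cytometry and normalized to 20 uM Triacsin C.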

[1] = measured here: cell count channel max response
[2] = measured here: cell number channel AC50
[3] = measured here: lipid (BODIPY) channel AC50
[4] = measured here: lipid channel max response
Tags give direction and shape of the fitted curve.

Compound	max response [1]	AC50 [2]	AC50 [3]	max response [4]
COc1cccc(-c2nc(N3CCN(C)CC3)c3ccccc3n2)c1	31.9%	11.2 µM [rising, partial curve, poor fit]	10 µM [rising, partial curve, poor fit]	38.1%
COc1ccc(CNc2ncncc2-c2c(C)noc2C)c(OC)c1	30.4%	12.6 µM [rising, partial curve, poor fit]	15.8 µM [rising, partial curve, poor fit]	38.5%
COc1ccc2[nH]cc(CCNc3ncnc4ccc(-c5cccc(C#N)c5)cc34)c2c1	-4.87%	0.708 µM [rising, full curve]	0.708 µM [rising, full curve]	1.97%
COc1ccc2[nH]cc(CC(N)C(=O)O)c2c1 (centres undefined)	108%	14.1 µM [rising, partial curve]	15.8 µM [rising, partial curve]	144%
COc1cccc(Cn2c(=O)c(-c3cccc(Cl)c3)nc3cncnc32)c1	19.7%	0.562 µM [rising, full curve, poor fit]	0.562 µM [rising, full curve, poor fit]	34.1%
COc1ccccc1-c1cncnc1N(C)Cc1ccco1	33.8%	8.91 µM [rising, partial curve]	6.31 µM [rising, partial curve]	36.9%
COc1ccc(CNc2cc(-c3cccc(NS(C)(=O)=O)c3)ncn2)c(OC)c1	35.9%	2 µM [rising, full curve, poor fit]	3.55 µM [rising, partial curve, poor fit]	44.7%
O=c1cc(-c2cccc(O)c2O)oc2ccccc12	67.9%	12.6 µM [rising, partial curve, poor fit]	12.6 µM [rising, partial curve, poor fit]	81.2%
COc1ccccc1CNc1cc(-c2ccc(C(=O)N(C)C)cc2)ncn1	39.1%	7.94 µM [rising, partial curve, poor fit]	1.12 µM [rising, full curve, poor fit]	45.2%
COc1cccc(Cn2c(=O)cnc3cnc(N(C)C)nc32)c1	14.4%	8.91 µM [rising, partial curve, poor fit]	0.00355 µM [rising, full curve, poor fit]	13.4%
C[C@H](O)CO[C@H]1[C@H]2O[C@H]3[C@H](O)[C@@H](O)[C@@H](O[C@H]4[C@H](O)[C@@H](O)[C@@H](O[C@H]5[C@H](O)[C@@H](O)[C@@H](O[C@H]6[C@H](O)[C@@H](OC[C@H](C)O)[C@@H](O[C@H]7[C@H](O)[C@@H](OC[C@H](C)O)[C@@H](O[C@H]8[C@H](O)[C@@H](O)[C@@H](O[C@@H]([C@@H]1O)[C@@H](CO)O2)O[C@@H]8CO)O[C@@H]7CO)O[C@@H]6CO)O[C@@H]5CO)O[C@@H]4CO)O[C@@H]3CO	-20.2%	20 µM [rising, single point]	20 µM [rising, single point]	-23.6%
COCC(=O)N1CCC2(CC1)CCN(c1ccc(-c3ccccc3)cc1)CC2	13.3%	0.00501 µM [rising, full curve, poor fit]	0.398 µM [rising, full curve]	24.7%
COc1cccc(-c2nccc(N(C)Cc3ccco3)n2)c1	32%	2.24 µM [rising, full curve, poor fit]	2 µM [rising, full curve, poor fit]	38.6%
Cc1ccccc1-c1cncnc1Nc1ccccc1	31.9%	2.51 µM [rising, partial curve, poor fit]	1 µM [rising, full curve, poor fit]	41.1%
COc1ccccc1-c1oc2ccccc2c(=O)c1O	76.2%	31.6 µM [rising, partial curve]	31.6 µM [rising, partial curve]	102%
COc1ccccc1CNc1cc(-c2ccccc2C(F)(F)F)ncn1	42%	31.6 µM [rising, partial curve]	31.6 µM [rising, partial curve]	48.1%
